Patent publication US20240101699A1, “MODULATION OF CD46 CELL SURFACE EXPRESSION AND THERAPEUTIC USE THEREOF” (The Regents of the University of California, priority 2021, published 2024)

Legend:
[1] = test system: LnCap-C4-2B, LnCap-C4, DU145, PC3-luc, and Hs27 prostate cancer cells; test: Binding to the surface of prostate cancer cells
non-tumor BPH1 cells = test: Binding to the surface of non-tumor cells
[2] = test system: RPMI8226, MM.1S, MM.1R, and INA6 multiple myeloma cells; test: Binding to the surface of multiple myeloma cells

B1: YS5FL: human anti-CD46 antibody; VH SEQ ID NO: 86, VL SEQ ID NO: 87; HC SEQ ID NO: 88, LC SEQ ID NO: 89 (antibody)
heavy: QVQLVQSGGGVVQPGRSLRLACAASGLTVNNYAMHWVRQAPGKGLEWVAVISYDGNNKYYADSVKGRFTISRDNSKNTLYLQMNSLRAEDTAVYYCAKGGGYFDLWGRGTLVTVSS[human IgG1 constant region not written out]
light: QSVLTQPPSVSGAPGQRVTISCTGSSSNIGAGYDVHWYQQLPGTAPKLLIYGNNNRPSGVPDRFSGSKSGTSASLAITGLQAEDEADYYCSSYTSGTWLFGGGTKLTVLGQPKAAPSVTLFPPSSEELQANKATLVCLISDFYPGAVTVAWKADSSPVKAGVETTTPSKQSNNKYAASSYLSLTPEQWKSHRSYSCQVTHEGSTVEKTVAPTECS
[1]
  specific binding to cell surface: bind specifically
non-tumor BPH1 cells
  specific binding to cell surface: not
[2]
  specific binding to cell surface: binds specifically
